This is an account of results in the supplement of paper PMC11880418.

Structures can show the parent of a compound that is named as a salt. The list shows a part of the results. The data scatter; read single values as rough. Residues, ends and D or L forms follow the SMILES beside them.
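Note: High-content imaging of ALDEFLUOR-stained cells with Hoechst-labelled nuclei in 384-well plates, triplicate wells, scored as Z-score against 0.1% DMSO vehicle, negative meaning fewer ALDHbr cells.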

The test system of the assay is PANC1. Description: ALDHbr (CSC) cell proportion score relative to DMSO vehicle (ratio to DMSO); breast (SUM159) / gastric (MKN45) / pancreatic (PANC1) / colon cancer lines; ALDHbr cells have high ALDH activity and are rich in cancer stem cells (CSC); higher = more CSC (ALDHbr) cells remaining. Particulars: 10 µM; 72 h.
With `CCN(CC)CCNC(C(=O)OCCC(C)C)c1ccccc1` (stereo unspecified) [Camylofine chlorhydrate], the ALDHbr turned out to be 0.961.

Regarding `CC(=O)OCC(=O)[C@@]1(O)CC[C@H]2[C@@H]3CCC4=CC(=O)CC[C@]4(C)[C@@]3(F)[C@@H](O)C[C@@]21C` [Fludrocortisone acetate], the ALDHbr worked out at 0.443.

Take `CC(C(=O)O)c1ccc(N2Cc3ccccc3C2=O)cc1` (stereo unspecified) [Indoprofen]: the ALDHbr turned out to be 0.879.

As for `O=C1CN2Cc3c(ccc(Cl)c3Cl)N=C2N1` [Anagrelide], the ALDHbr came to 0.657.

`CC(C)(C)NC[C@H](O)COc1cccc2c1CCCC2=O` [(-) -Levobunolol hydrochloride]: the ALDHbr amounted to 0.865.

Turning to `CCCc1nc(C)c2c(=O)nc(-c3cc(S(=O)(=O)N4CCN(CC)CC4)ccc3OCC)[nH]n12` [Vardenafil], the ALDHbr was determined as 0.383.

As to `CC1(C)O[C@@H]2C[C@H]3[C@@H]4CCC5=CC(=O)C=C[C@]5(C)[C@H]4[C@@H](O)C[C@]3(C)[C@]2(C(=O)CO)O1` [Desonide], the ALDHbr amounted to 0.647.

As to `CNCCCC12CCC(c3ccccc31)c1ccccc12` [Maprotiline hydrochloride], the ALDHbr amounted to 1.13.

As for `CNc1ncnc2c1ncn2[C@@H]1O[C@H](CO)[C@@H](O)[C@H]1O` [N6-methyladenosine], the ALDHbr stood at 0.893.

For the compound `C=CCOc1ccccc1OCC(O)CNC(C)C` (stereo unspecified) [Oxprenolol hydrochloride], the ALDHbr was 0.976.

As to `NS(=O)(=O)c1cc2c(cc1Cl)N=CNS2(=O)=O` [Chlorothiazide], the ALDHbr came out at 0.758.

In the case of `Cc1nc(=O)c2cc(CN(C)c3ccc(C(=O)N[C@@H](CCC(=O)O)C(=O)O)s3)ccc2[nH]1` [Raltitrexed], the ALDHbr was 1.36.

As for `NC12CC3CC(CC(C3)C1)C2` [Adamantamine fumarate], the ALDHbr stood at 0.893.

As for `CCN(CCO)CCCC(C)Nc1ccnc2cc(Cl)ccc12` (stereo unspecified) [Hydroxychloroquine sulfate], the ALDHbr is 0.968.

Turning to `COc1ccc(C(Cl)=C(c2ccc(OC)cc2)c2ccc(OC)cc2)cc1` [Chlorotrianisene], the ALDHbr stood at 1.2.

In the case of `CC(C)Oc1ccc2c(=O)c(-c3ccccc3)coc2c1` [Ipriflavone], the ALDHbr came to 0.627.

Regarding `C(=C\c1ccccc1)/CN1CCN(C(c2ccccc2)c2ccccc2)CC1` [Cinnarizine], the ALDHbr is 0.803.

For the compound `CCC(C)(C)c1ccc(CC(C)CN2C[C@@H](C)O[C@@H](C)C2)cc1` (stereo partly specified) [Amorolfine hydrochloride], the ALDHbr stood at 0.93.

Regarding `CCC(=O)OCC(=O)[C@@]1(OC(=O)CC)[C@H](C)C[C@H]2[C@H]3[C@H]([C@@H](O)C[C@@]21C)[C@@]1(C)C=CC(=O)C=C1C[C@H]3Cl` [Alclometasone dipropionate], the ALDHbr was found to be 0.757.

Turning to `CC1(C)S[C@@H]2[C@H](NC(=O)[C@H](N)c3ccccc3)C(=O)N2[C@H]1C(=O)O` [Ampicillin trihydrate], the ALDHbr is 0.845.

Regarding `CCC1NC(=O)c2cc(S(N)(=O)=O)c(Cl)cc2N1` (stereo unspecified) [Quinethazone], the ALDHbr worked out at 0.957.

As to `CC(=O)N[C@@H](CC(=O)O)C(=O)N[C@@H](CCC(=O)O)C(=O)O` [Spaglumic acid] (Ac-Asp-Glu-OH), the ALDHbr turned out to be 1.12.

For the compound `C#C[C@]1(O)CC[C@H]2[C@@H]3CCC4=CC(=O)CC[C@@H]4[C@H]3CC[C@@]21CC` [Norgestrel-(-)-D], the ALDHbr was determined as 0.841.

Turning to `CCN(CC)CCOC(=O)C1(C2CCCCC2)CCCCC1` [Dicyclomine hydrochloride], the ALDHbr came out at 0.845.

With `Cc1ccc(-c2cc(C(F)(F)F)nn2-c2ccc(S(N)(=O)=O)cc2)cc1` [Celecoxib], the ALDHbr was 0.367.

With `C#C[C@]1(O)CC[C@H]2[C@@H]3CCC4=C(CCC(=O)C4)[C@H]3CC[C@@]21C` [Norethynodrel], the ALDHbr came to 0.596.

For `C[C@H](CCC(=O)O)[C@H]1CC[C@H]2[C@@H]3CC[C@@H]4C[C@H](O)CC[C@]4(C)[C@H]3CC[C@]12C` [Lithocholic acid], the ALDHbr was determined as 0.961.

Take `O=C(c1ccc(OCCN2CCCCC2)cc1)c1c(-c2ccc(O)cc2)sc2cc(O)ccc12` [Raloxifene hydrochloride]: the ALDHbr amounted to 0.772.

For `COCCc1ccc(OCC(O)CNC(C)C)cc1` (racemic) [Metoprolol-(+,-) (+)-tartrate salt], the ALDHbr worked out at 0.903.

For the compound `CC(=O)[C@@]12O[C@](C)(c3ccccc3)O[C@@H]1C[C@H]1[C@@H]3CCC4=CC(=O)CC[C@]4(C)[C@H]3CC[C@@]12C` [Algestone acetophenide], the ALDHbr was determined as 0.821.

For the compound `CC(=O)OCC(=O)[C@@]1(O)[C@H](C)C[C@H]2[C@@H]3CCC4=CC(=O)C=C[C@]4(C)[C@@]3(F)[C@@H](O)C[C@@]21C` [Dexamethasone acetate], the ALDHbr was determined as 0.588.
